Reference: the supplement of paper PMC8728848
The other results are listed elsewhere or left out.

Key:
Assay in all cases: glycan array binding signal (z-score within array); higher = stronger binding
Conditions in all cases: glycan notation: IUPAC condensed, linker removed
[1] = biological target: Neu5Ac(a2-6)GalNAc
How it was run: (§1)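 Arrays were curated from the Consortium for Functional Glycomics database, 3228 in total, and kept only where the protein sequence was available. Binding is expressed as a within-array Z-score. This score was averaged across arrays of the same protein sequence at different concentrations or buffers and across linkers, and negative values can be read as non-binding.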

[2] = biological target: Neu5Ac(a2-6)GalNAc(b1-4)GlcNAc
How it was run: as §1

[3] = biological target: Neu5Ac(a2-6)GlcNAc(b1-4)GlcNAc
How it was run: as §1

[4] = biological target: Neu5Ac(a2-6)GlcNAc(b1-4)GlcNAc(b1-4)GlcNAc
How it was run: as §1

[5] = biological target: Neu5Ac(a2-8)Neu5Ac
How it was run: as §1

[6] = biological target: Neu5Ac(a2-8)Neu5Ac(a2-3)Gal(b1-4)Glc
How it was run: as §1

[7] = biological target: Neu5Ac(a2-8)Neu5Ac(a2-3)[GalNAc(b1-4)]Gal(b1-4)Glc
How it was run: as §1

[8] = biological target: Neu5Ac(a2-8)Neu5Ac(a2-8)Neu5Ac
How it was run: as §1

[9] = biological target: Neu5Ac(a2-8)Neu5Ac(a2-8)Neu5Ac(a2-3)Gal(b1-4)Glc
How it was run: as §1

[10] = biological target: Neu5Ac(a2-8)Neu5Ac(a2-8)Neu5Ac(a2-3)[GalNAc(b1-4)]Gal(b1-4)Glc
How it was run: as §1

[11] = biological target: Neu5Ac(a2-8)Neu5Ac(a2-8)Neu5Ac(a2-8)Neu5Ac(a2-3)[GalNAc(b1-4)]Gal(b1-4)Glc
How it was run: as §1

[12] = biological target: Neu5Ac(b2-6)Gal(b1-4)GlcNAc
How it was run: as §1

[13] = biological target: Neu5Ac(b2-6)GalNAc
How it was run: as §1

[14] = biological target: Neu5Ac9Ac(a2-3)Gal(b1-3)GlcNAc
How it was run: as §1

[15] = biological target: Neu5Ac9Ac(a2-3)Gal(b1-4)GlcNAc
How it was run: as §1

[16] = biological target: Neu5Ac9Ac(a2-6)Gal(b1-4)GlcNAc
How it was run: as §1

[17] = biological target: Neu5Gc(a2-3)Gal(b1-3)GlcNAc
How it was run: as §1

[18] = biological target: Neu5Gc(a2-3)Gal(b1-3)[Fuc(a1-4)]GlcNAc
How it was run: as §1

[19] = biological target: Neu5Gc(a2-3)Gal(b1-4)Glc
How it was run: as §1

[20] = biological target: Neu5Gc(a2-3)Gal(b1-4)GlcNAc
How it was run: as §1

[21] = biological target: Neu5Gc(a2-3)Gal(b1-4)[Fuc(a1-3)]GlcNAc
How it was run: as §1

[22] = biological target: Neu5Gc(a2-6)Gal(b1-4)GlcNAc
How it was run: as §1

[23] = biological target: Neu5Gc(a2-6)GalNAc
How it was run: as §1

[24] = biological target: Neu5Gc(b2-6)Gal(b1-4)GlcNAc
How it was run: as §1

B1: DC-SIGN (Canis lupus), XP_853402 (protein)
chain: AGLCRPCPWKWELFQESCYFFSQTQNTWKESISACQNLRAQLVIINSTEEQKFLKSWNTRNNQRTWIGLSDHHNEGSWKWVDNTPLQLSFWKEGEPNNHGDEDCVELYSDGWNDNRCSTENFWICKKPSSPCPGPGLNDIFEAQKIEWHE
glycan array binding signal (z-score) [1]: -0.217
glycan array binding signal (z-score) [2]: -0.281
glycan array binding signal (z-score) [3]: -0.227
glycan array binding signal (z-score) [4]: -0.347
glycan array binding signal (z-score) [5]: 0.015
glycan array binding signal (z-score) [6]: -0.228
glycan array binding signal (z-score) [7]: -0.062
glycan array binding signal (z-score) [8]: -0.312
glycan array binding signal (z-score) [9]: -0.292
glycan array binding signal (z-score) [10]: 0.226
glycan array binding signal (z-score) [11]: 0.169
glycan array binding signal (z-score) [12]: -0.361
glycan array binding signal (z-score) [13]: -0.264
glycan array binding signal (z-score) [14]: -0.346
glycan array binding signal (z-score) [15]: 1.02
glycan array binding signal (z-score) [16]: 0.058
glycan array binding signal (z-score) [17]: -0.15
glycan array binding signal (z-score) [18]: -0.101
glycan array binding signal (z-score) [19]: -0.065
glycan array binding signal (z-score) [20]: -0.237
glycan array binding signal (z-score) [21]: -0.319
glycan array binding signal (z-score) [22]: -0.011
glycan array binding signal (z-score) [23]: -0.273
glycan array binding signal (z-score) [24]: 0.006
